From PMC9040859
These are yes or no findings as the source states them, for the method shown. Binding seen in cells or lysates may run through a third protein. Some entries that bind do so weakly or less than the wild type.

How the values were obtained:
[1] = target: GST-USP7-C2 (aa 913 to 1102) (UniProt Q93009); assay: pull-down; GST-USP7 fusion proteins on glutathione Sepharose 4B beads incubated with 800 ug of H1299 cell lysate (virus-infected or Flag-DBP-transfected) at 4 C overnight, washed three times with RIPA buffer, immunoblot; only the target purified
[2] = target: GST-USP7-TD (TRAF-like domain, aa 1 to 215) (UniProt Q93009); assay: as above
[3] = target: GST-USP7-C1 (aa 561 to 916) (UniProt Q93009); assay: as above
[4] = target: GST-USP7-CD (catalytic domain, aa 212 to 561) (UniProt Q93009); assay: as above
[5] = target: FLAG-tagged WT HAdV-C5 DBP (human adenovirus C5 (HAdV-C5)) (UniProt P03265); assay: co-IP; HCT116 cells cotransfected with Myc-USP7 and Flag-DBP WT or mutant plasmids, harvested 48 hpt; RIPA lysates; DBP precipitated with MAb Flag-M2, blot for USP7
[6] = target: FLAG-tagged WT HAdV-C5 DBP (human adenovirus C5 (HAdV-C5)) (UniProt P03265); assay: co-IP; H1299 cells transfected with Flag-DBP and Myc-USP7 plasmids, harvested 48 hpt; RIPA lysates; DBP precipitated with MAb Flag-M2, blot with anti-USP7
[7] = target: HAdV-C5 DNA binding protein (DBP), wild type, expressed from the virus H5pg4100 (human adenovirus C5 (HAdV-C5)) (UniProt P03265); assay: co-IP; Myc-USP7-transfected H1299 cells infected 24 hpt (MOI 20) with WT or mutant virus, harvested 48 h later; RIPA lysates; DBP precipitated with MAb B6-8, blot with anti-USP7
[8] = target: HAdV-C5 DNA binding protein (DBP), wild type, expressed from the virus H5pg4100 (human adenovirus C5 (HAdV-C5)) (UniProt P03265); assay: co-IP; HCT116 cells infected with WT H5pg4100 (MOI 20), harvested 48 h later; RIPA lysates; DBP precipitated with an anti-DBP antibody, blot with anti-USP7 (endogenous USP7)

Row | Substance | binding [1] | binding [2] | binding [3] | binding [4] | binding [5] | binding [6] | binding [7] | binding [8]
1 | FLAG-tagged WT HAdV-C5 DBP (from UniProt P03265 1-529) | no binding | binds | no binding | no binding | – | – | – | –
2 | HAdV-C5 DNA binding protein (DBP), wild type, expressed from the virus H5pg4100 (from UniProt P03265 1-529) | no binding | binds | no binding | no binding | – | – | – | –
3 | Myc-tagged ubiquitin-specific protease 7 (USP7) (from UniProt Q93009 1-1102) (enzyme) | – | – | – | – | binds | binds | binds | –
4 | endogenous ubiquitin-specific protease 7 (USP7) (from UniProt Q93009 1-1102) (enzyme) | – | – | – | – | – | – | – | binds
